# Assay results as given in the supplement of paper PMC8728848.
# This is one part of the list.
# Experiments:
# Experiment in all cases: glycan array binding signal (z-score within array); higher = stronger binding
# Conditions in all cases: glycan notation: IUPAC condensed, linker removed
# [1] = target: Fuc(a1-2)Gal(b1-4)GlcNAc(b1-3)Gal(b1-4)GlcNAc(b1-2)Man(a1-3)[Fuc(a1-2)Gal(b1-4)GlcNAc(b1-3)Gal(b1-4)GlcNAc(b1-2)Man(a1-6)]Man(b1-4)GlcNAc(b1-4)GlcNAc
# In short: (§1)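 Negative Z-scores can be read as non-binding. The Z-score is calculated within each array and then averaged across arrays of one protein sequence at different concentrations or buffers and across linkers. Arrays, 3228 in all, were curated from the Consortium for Functional Glycomics database and kept only where the protein sequence was available.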
# [2] = target: Fuc(a1-2)Gal(b1-4)GlcNAc(b1-3)Gal(b1-4)GlcNAc(b1-3)Gal(b1-4)GlcNAc
# In short: as §1
# [3] = target: Fuc(a1-2)Gal(b1-4)GlcNAc(b1-3)GalNAc
# In short: as §1
# [4] = target: Fuc(a1-2)Gal(b1-4)GlcNAc(b1-3)[Fuc(a1-2)Gal(b1-4)GlcNAc(b1-6)]GalNAc
# In short: as §1
# [5] = target: Fuc(a1-2)Gal(b1-4)GlcNAc(b1-3)[Fuc(a1-3)[Gal(b1-4)]GlcNAc(b1-6)]Gal(b1-4)Glc
# In short: as §1
# [6] = target: Fuc(a1-2)Gal(b1-4)GlcNAc(b1-6)GalNAc
# In short: as §1
# [7] = target: Fuc(a1-2)Gal(b1-4)GlcNAc6S
# In short: as §1
# [8] = target: Fuc(a1-2)Gal(b1-4)[Fuc(a1-3)]GlcNAc
# In short: as §1
# [9] = target: Fuc(a1-2)Gal(b1-4)[Fuc(a1-3)]GlcNAc(b1-2)Man(a1-3)[Fuc(a1-2)Gal(b1-4)[Fuc(a1-3)]GlcNAc(b1-2)Man(a1-6)]Man(b1-4)GlcNAc(b1-4)[Fuc(a1-6)]GlcNAc
# In short: as §1
# [10] = target: Fuc(a1-2)Gal(b1-4)[Fuc(a1-3)]GlcNAc(b1-2)[Fuc(a1-2)Gal(b1-4)[Fuc(a1-3)]GlcNAc(b1-4)]Man(a1-3)[Fuc(a1-2)Gal(b1-4)[Fuc(a1-3)]GlcNAc(b1-2)Man(a1-6)]Man(b1-4)GlcNAc(b1-4)GlcNAc
# In short: as §1
# [11] = target: Fuc(a1-2)Gal(b1-4)[Fuc(a1-3)]GlcNAc(b1-3)Gal(b1-4)[Fuc(a1-3)]GlcNAc
# In short: as §1
# [12] = target: Fuc(a1-2)Gal(b1-4)[Fuc(a1-3)]GlcNAc(b1-3)Gal(b1-4)[Fuc(a1-3)]GlcNAc(b1-3)Gal(b1-4)[Fuc(a1-3)]GlcNAc
# In short: as §1
# [13] = target: Fuc(a1-2)Gal(b1-4)[Fuc(a1-3)]GlcNAc(b1-3)GalNAc
# In short: as §1
# [14] = target: Fuc(a1-2)Gal(b1-4)[Fuc(a1-3)]GlcNAc(b1-3)[Neu5Ac(a2-6)Gal(b1-4)GlcNAc(b1-6)]Gal(b1-4)Glc
# In short: as §1
# [15] = target: Fuc(a1-2)Gal3S(b1-4)GlcNAc
# In short: as §1
# [16] = target: Fuc(a1-2)Gal6S(b1-3)GlcNAc
# In short: as §1
# [17] = target: Fuc(a1-2)Gal6S(b1-3)GlcNAc6S
# In short: as §1
# Fuc(a1-2)Gal6S(b1-4)Glc = target: Fuc(a1-2)Gal6S(b1-4)Glc
# In short: as §1
# [18] = target: Fuc(a1-2)Gal6S(b1-4)Glc6S
# In short: as §1
# Fuc(a1-2)[Gal(a1-3)]Gal = target: Fuc(a1-2)[Gal(a1-3)]Gal
# In short: as §1
# [19] = target: Fuc(a1-2)[Gal(a1-3)]Gal(b1-3)GalNAc
# In short: as §1
# [20] = target: Fuc(a1-2)[Gal(a1-3)]Gal(b1-3)GalNAc(b1-3)Gal(a1-4)Gal(b1-4)Glc
# In short: as §1
# [21] = target: Fuc(a1-2)[Gal(a1-3)]Gal(b1-3)GlcNAc
# In short: as §1
# [22] = target: Fuc(a1-2)[Gal(a1-3)]Gal(b1-3)GlcNAc(b1-2)Man(a1-3)[Fuc(a1-2)[Gal(a1-3)]Gal(b1-3)GlcNAc(b1-2)Man(a1-6)]Man(b1-4)GlcNAc(b1-4)GlcNAc
# In short: as §1
# [23] = target: Fuc(a1-2)[Gal(a1-3)]Gal(b1-3)GlcNAc(b1-2)Man(a1-3)[Fuc(a1-2)[Gal(a1-3)]Gal(b1-3)GlcNAc(b1-2)Man(a1-6)]Man(b1-4)GlcNAc(b1-4)[Fuc(a1-6)]GlcNAc
# In short: as §1
# [24] = target: Fuc(a1-2)[Gal(a1-3)]Gal(b1-3)GlcNAc(b1-3)GalNAc
# In short: as §1
# [25] = target: Fuc(a1-2)[Gal(a1-3)]Gal(b1-3)GlcNAc(b1-6)GalNAc
# In short: as §1
# [26] = target: Fuc(a1-2)[Gal(a1-3)]Gal(b1-4)Glc
# In short: as §1
# [27] = target: Fuc(a1-2)[Gal(a1-3)]Gal(b1-4)GlcNAc
# In short: as §1
# [28] = target: Fuc(a1-2)[Gal(a1-3)]Gal(b1-4)GlcNAc(b1-2)Man
# In short: as §1
binder,measurement,setting,value
"CC1G-11630 (Coprinopsis cinerea), A8P462 (protein) MTTEAKIKLKAVVYWELVFDYDNSSNTGEITQSYTVKISQTSTRSTFASEVSTTTIDTLTKNNQEVDVGASYGAISANVSASWEHSEEVNNMLEKTTQTSTEDTYTVETEETRSYTIGPGGMLSLFQKHFSGPGMHVAFDVFTTDLELAKERTEIDIDVDVEAIRFVREIRVVYTDIMSEAPGDHVREINGKNPDINYGFNGKFVWLVPEQTRKTAQALTNVEFVSQAESDDRYWDLAAGAGGSNRYLIPVYDTNNKDKIYELALWRSDSYITHDKVKAAGWSGTTGDINSGRGGTYLNLVWKTRHAY",glycan array binding signal (z-score),[1],-0.205
same,glycan array binding signal (z-score),[2],-0.439
same,glycan array binding signal (z-score),[3],-0.5
same,glycan array binding signal (z-score),[4],-0.036
same,glycan array binding signal (z-score),[5],-0.581
same,glycan array binding signal (z-score),[6],0.713
same,glycan array binding signal (z-score),[7],0.388
same,glycan array binding signal (z-score),[8],-0.687
same,glycan array binding signal (z-score),[9],-0.485
same,glycan array binding signal (z-score),[10],1.01
same,glycan array binding signal (z-score),[11],-0.622
same,glycan array binding signal (z-score),[12],-0.497
same,glycan array binding signal (z-score),[13],0.411
same,glycan array binding signal (z-score),[14],-0.354
same,glycan array binding signal (z-score),[15],-0.605
same,glycan array binding signal (z-score),[16],-0.441
same,glycan array binding signal (z-score),[17],1.82
same,glycan array binding signal (z-score),Fuc(a1-2)Gal6S(b1-4)Glc,0.326
same,glycan array binding signal (z-score),[18],0.707
same,glycan array binding signal (z-score),Fuc(a1-2)[Gal(a1-3)]Gal,-0.113
same,glycan array binding signal (z-score),[19],-0.167
same,glycan array binding signal (z-score),[20],-0.296
same,glycan array binding signal (z-score),[21],0.172
same,glycan array binding signal (z-score),[22],-0.514
same,glycan array binding signal (z-score),[23],0.592
same,glycan array binding signal (z-score),[24],-0.115
same,glycan array binding signal (z-score),[25],-0.205
same,glycan array binding signal (z-score),[26],-0.429
same,glycan array binding signal (z-score),[27],-0.164
same,glycan array binding signal (z-score),[28],-0.591
